Experimental findings from the antibiotic and cytotoxicity screens of Wong et al. (2023) are described below.

Molecules are shown by their SMILES. The list shows a part of the results.

For one assay, the system named is HSkMC. Kind of assay: cytotoxicity call (relative viability < 0.9). As to conditions: 10 µM.
A further assay has as its system HepG2. The assay is described as follows: cytotoxicity call (relative viability < 0.9). Conditions: 10 µM.
Another assay concerns S. aureus RN4220. Kind of assay: growth inhibition call (relative growth <= 0.2). Conditions: 50 µM.

Consider `CO[C@H]1CN(C)C(=O)c2cc(NC(=O)NC(C)C)ccc2OC[C@H](C)N(Cc2ccc(-c3ccccn3)cc2)C[C@H]1C`, for which the cytotoxicity call in the assay with HSkMC and in the assay with HepG2 was “inactive” each time. Besides, in the assay with S. aureus RN4220, the growth inhibition call was “inactive”.
Take `C[C@H]1CN([C@@H](C)CO)C(=O)Cc2cc(NC(=O)C3CC3)ccc2O[C@H]1CN(C)S(=O)(=O)c1ccc(Cl)cc1`: in the assay on HSkMC, the cytotoxicity call was “inactive”. In addition, the cytotoxicity call in the assay on HepG2 is “active”. Moreover, the growth inhibition call with S. aureus RN4220 was “inactive”.
Regarding `C[C@H]1CN([C@@H](C)CO)C(=O)Cc2cc(NS(=O)(=O)c3ccc(Cl)cc3)ccc2O[C@@H]1CN(C)Cc1ccc(C(F)(F)F)cc1`, the cytotoxicity call in the assay with HSkMC and with HepG2 was “active” in each case. Also, in the assay on S. aureus RN4220, the growth inhibition call is “inactive”.
With `c1ccc2c(c1)-c1ccc3ccc4cccc5cc-2c1c3c45`, the cytotoxicity call in the assay with HSkMC and with HepG2 was “inactive” throughout. In addition, the growth inhibition call in the assay on S. aureus RN4220 is “inactive”.
On to `C[C@@H]1CN([C@H](C)CO)C(=O)Cc2cc(NC(=O)Cc3cn(C)c4ccccc34)ccc2O[C@@H]1CN(C)Cc1ccc(-c2ccccc2)cc1`, for which the cytotoxicity call with HSkMC is “inactive”. For the same compound, in the assay with HepG2, the cytotoxicity call is “active”. Moreover, the growth inhibition call in the assay with S. aureus RN4220 is “inactive”.
For `C[C@H]1CCCCO[C@H](CN(C)CC2CCCCC2)[C@@H](C)CN([C@@H](C)CO)C(=O)c2cc(NC(=O)CCC(F)(F)F)ccc2O1`, the cytotoxicity call in the assay with HSkMC and in the assay with HepG2 was “inactive” in each case. For the same compound, the growth inhibition call with S. aureus RN4220 was “inactive”.
As to `C[C@@H]1CCCCO[C@H](CN(C)S(=O)(=O)c2cn(C)cn2)[C@H](C)CN([C@@H](C)CO)C(=O)c2cc(NS(=O)(=O)c3ccc(F)cc3)ccc2O1`, the cytotoxicity call in the assay with HSkMC and in the assay on HepG2 was “inactive” in each case. Besides, in the assay with S. aureus RN4220, the growth inhibition call is “inactive”.
As for `C[C@@H]1CN([C@@H](C)CO)C(=O)Cc2cc(NC(=O)Nc3cccc4ccccc34)ccc2O[C@@H]1CN(C)C(=O)Nc1ccc(C(F)(F)F)cc1`, the cytotoxicity call in the assay on HSkMC was “active”. Moreover, the cytotoxicity call with HepG2 is “inactive”. In the assay on S. aureus RN4220, the growth inhibition call was “inactive”.
As for `C[C@H]1OC(=O)c2c(O)ccc(O)c2[C@H]1O`, the cytotoxicity call in the assay on HSkMC and with HepG2 was “inactive” throughout. Further, the growth inhibition call in the assay with S. aureus RN4220 was “inactive”.
Consider `COc1ccc(S(=O)(=O)N(C)C[C@H]2Oc3cc(C#CC4CCCC4)ccc3S(=O)(=O)N([C@@H](C)CO)C[C@H]2C)cc1`, for which the cytotoxicity call in the assay with HSkMC and with HepG2 was “inactive” in each case. Moreover, in the assay with S. aureus RN4220, the growth inhibition call was “inactive”.
As for `CCS(=O)(=O)N1C[C@]2(CN(C2)C(=O)Nc2c(noc2C)C)c2c(n(c3cc(ccc23)OC)C)[C@H]1CO`, the cytotoxicity call in the assay with HSkMC and with HepG2 was “inactive” throughout. For the same compound, the growth inhibition call in the assay with S. aureus RN4220 is “inactive”.
Consider `C[C@@H]1CN([C@@H](C)CO)C(=O)c2cc(NC(=O)Nc3ccc(C(F)(F)F)cc3)ccc2O[C@@H]1CN(C)C(=O)Nc1ccc(F)cc1`, for which the cytotoxicity call in the assay on HSkMC and in the assay on HepG2 was “active” in each case. In the assay on S. aureus RN4220, the growth inhibition call was “inactive”.
On to `O=C1O[C@@H](c2ccccc2)[C@@H](c2ccccc2)N2[C@@H](c3ccc(O)cc3)[C@]3(C(=O)Nc4ccc(C#CCCO)cc43)[C@@H](C(=O)NC[C@H](O)c3ccccc3)[C@H]12`, for which the cytotoxicity call in the assay on HSkMC and in the assay on HepG2 was “inactive” each time. For the same compound, the growth inhibition call with S. aureus RN4220 is “inactive”.
Turning to `C[C@H]1CN([C@@H](C)CO)C(=O)c2cccc(NC(=O)Nc3ccc(F)cc3)c2O[C@H]1CN(C)S(C)(=O)=O`, the cytotoxicity call with HSkMC and in the assay on HepG2 was “inactive” each time. Besides, the growth inhibition call in the assay on S. aureus RN4220 was “inactive”.
Take `C[C@@H]1CCCCO[C@@H](CN(C)C(=O)Nc2cccc3ccccc23)[C@@H](C)CN([C@@H](C)CO)C(=O)c2cc(NC(=O)Nc3cccc4ccccc34)ccc2O1`: the cytotoxicity call in the assay on HSkMC and with HepG2 was “inactive” throughout. The growth inhibition call in the assay on S. aureus RN4220 was “inactive”.
As to `CCN(CC)CCOCCOC(=O)C1(c2ccccc2)CCCC1.O=C(O)CC(O)(CC(=O)O)C(=O)O`, the cytotoxicity call in the assay on HSkMC is “inactive”. For the same compound, in the assay with HepG2, the cytotoxicity call is “active”. Moreover, the growth inhibition call with S. aureus RN4220 was “inactive”.
For `CN1CCN(C(=O)C[C@@H]2CC[C@H]3[C@@H](COC[C@H](O)CN3C(=O)Nc3ccc4c(c3)OCO4)O2)CC1`, the cytotoxicity call in the assay on HSkMC and in the assay with HepG2 was “inactive” throughout. The growth inhibition call in the assay on S. aureus RN4220 was “inactive”.
With `O=C1O[C@@H](c2ccccc2)[C@@H](c2ccccc2)N2[C@@H](c3ccc(O)cc3)[C@]3(C(=O)Nc4ccc(C#CC5=CCCCC5)cc43)[C@@H](C(=O)NC[C@H](O)c3ccccc3)[C@H]12`, the cytotoxicity call in the assay with HSkMC and in the assay on HepG2 was “inactive” each time. Further, the growth inhibition call in the assay with S. aureus RN4220 was “inactive”.
As for `Cn1nnc2c1[C@H](COCCN1CCCC1)CN(S(C)(=O)=O)C2`, the cytotoxicity call in the assay with HSkMC and in the assay on HepG2 was “inactive” each time. In the assay on S. aureus RN4220, the growth inhibition call is “inactive”.
`CC(C)NC(=O)Nc1ccc2c(c1)C(=O)N([C@@H](C)CO)C[C@@H](C)[C@H](CN(C)S(=O)(=O)c1cn(C)cn1)O2`: the cytotoxicity call in the assay on HSkMC and in the assay on HepG2 was “inactive” each time. The growth inhibition call in the assay on S. aureus RN4220 is “inactive”.
Turning to `C[C@H](CO)N1C[C@H](C)[C@H](CN(C)C(=O)C2CC2)OCc2cnnn2CCCC1=O`, the cytotoxicity call with HSkMC and in the assay on HepG2 was “inactive” throughout. The growth inhibition call in the assay with S. aureus RN4220 is “inactive”.
For the compound `COc1ccc(S(=O)(=O)Nc2ccc3c(c2)CC(=O)N([C@H](C)CO)C[C@@H](C)[C@H](CN(C)Cc2ccc(C(=O)O)cc2)O3)cc1`, the cytotoxicity call in the assay on HSkMC and in the assay with HepG2 was “inactive” throughout. Moreover, the growth inhibition call in the assay with S. aureus RN4220 is “inactive”.
For `COc1ccc(NC(=O)N(C)C[C@H]2Oc3ccc(NC(=O)C4CC4)cc3CC(=O)N([C@H](C)CO)C[C@H]2C)cc1`, the cytotoxicity call in the assay on HSkMC and in the assay on HepG2 was “inactive” each time. Besides, in the assay on S. aureus RN4220, the growth inhibition call is “inactive”.
Consider `C[C@H]1CCCCO[C@@H](CN(C)C(=O)NC2CCCCC2)[C@@H](C)CN([C@@H](C)CO)C(=O)c2cc(NS(=O)(=O)c3ccc(Cl)cc3)ccc2O1`, for which the cytotoxicity call in the assay on HSkMC (human skeletal muscle cells) and with HepG2 was “inactive” throughout. In the assay on S. aureus RN4220, the growth inhibition call was “inactive”.
